Data: PMC4336329 (PLoS ONE, 2015)
Screen size: about 310,000 compounds; about 14,000 (4.5%) showed an effect of 50% or more. The effect is printed as a negative number. The list shows a part of the results.

Target: human ether-à-go-go-related gene (hERG) potassium channel (human, UniProt Q12809)
Assay: primary screen, population patch clamp on CHO cells stably expressing hERG
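Note: peak tail current of the secondary pulse compared with the same well before compound.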

Sequence of human ether-à-go-go-related gene (hERG) potassium channel (Q12809 whole entry, looked up): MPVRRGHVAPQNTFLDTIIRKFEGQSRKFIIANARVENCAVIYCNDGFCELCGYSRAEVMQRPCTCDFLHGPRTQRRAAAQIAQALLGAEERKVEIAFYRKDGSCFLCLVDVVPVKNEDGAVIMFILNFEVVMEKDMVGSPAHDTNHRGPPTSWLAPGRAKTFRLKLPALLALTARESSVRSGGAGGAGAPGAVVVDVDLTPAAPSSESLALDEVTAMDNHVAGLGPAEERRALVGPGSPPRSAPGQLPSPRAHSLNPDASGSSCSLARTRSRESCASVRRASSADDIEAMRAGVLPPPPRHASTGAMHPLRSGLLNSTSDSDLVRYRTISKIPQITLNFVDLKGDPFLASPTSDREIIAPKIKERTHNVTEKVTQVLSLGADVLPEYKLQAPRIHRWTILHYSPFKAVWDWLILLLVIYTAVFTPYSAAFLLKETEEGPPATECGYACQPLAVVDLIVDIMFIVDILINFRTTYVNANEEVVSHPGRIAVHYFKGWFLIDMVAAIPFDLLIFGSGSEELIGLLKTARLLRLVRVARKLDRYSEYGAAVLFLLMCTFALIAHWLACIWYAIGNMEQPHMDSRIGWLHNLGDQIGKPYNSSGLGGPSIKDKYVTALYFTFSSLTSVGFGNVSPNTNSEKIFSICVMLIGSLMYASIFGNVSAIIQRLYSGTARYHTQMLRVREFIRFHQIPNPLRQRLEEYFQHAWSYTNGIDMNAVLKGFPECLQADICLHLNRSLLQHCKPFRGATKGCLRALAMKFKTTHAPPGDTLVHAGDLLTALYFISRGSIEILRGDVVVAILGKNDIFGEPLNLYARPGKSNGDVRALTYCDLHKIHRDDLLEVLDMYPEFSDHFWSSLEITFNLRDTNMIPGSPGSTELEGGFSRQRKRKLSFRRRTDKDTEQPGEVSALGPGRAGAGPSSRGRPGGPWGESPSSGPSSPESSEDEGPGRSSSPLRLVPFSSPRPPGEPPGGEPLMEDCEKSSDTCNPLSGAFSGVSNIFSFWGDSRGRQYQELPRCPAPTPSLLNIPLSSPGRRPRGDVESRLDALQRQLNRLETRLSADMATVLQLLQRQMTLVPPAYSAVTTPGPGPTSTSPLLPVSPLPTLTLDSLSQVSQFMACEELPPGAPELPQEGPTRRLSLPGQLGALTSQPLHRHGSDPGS

SMILES | hERG current change (%, negative = inhibition) at 10uM [%]
OC(COc1ccc(OCc2ccccc2)cc1)CN1CCOCC1 (stereo not shown) | -17
CSCCC(NS(=O)(=O)c1ccccc1)C(=O)OCc1nc2ccsc2c(=O)[nH]1 (stereo not shown) | 2.87
COc1cc(NC(=O)Cn2cnc(S(=O)(=O)N3CCOCC3)c2)cc(OC)c1OC | 10.5
CCOC(=O)c1c(C)[nH]c(C)c1C(=O)CSc1nc2ccccc2c(=O)n1-c1ccc(Cl)cc1 | 3.43
Cc1noc(NS(=O)(=O)c2ccc(NC(=O)CCC3CCCCC3)cc2)c1C | 5.59
O=[N+]([O-])c1cc(Cl)ccc1N1CCN(c2ccccc2O)CC1 | 4.6
CCc1ccc(NC(=O)C2CCN(S(=O)(=O)c3cnc[nH]3)CC2)cc1 | 9.27
CC(NC(=O)COC(=O)c1cc(Cl)ccc1O)C1CC2CCC1C2 (stereo not shown) | 12
COc1ccc(N2CCN(CCCn3c(=S)[nH]c4ccccc4c3=O)CC2)cc1 | -36.7
c1ccc2c(c1)COC(CNC1CCCCC1)OC2 | 9.14
Cc1cc(C)c(S(=O)(=O)c2ccccc2C)c(SCC(C)C)n1 | -5.4
CCOc1ccc(OCC)c(NC(=O)CSc2nc3c(c(=O)n(C)c(=O)n3C)n2CC)c1 | -3.77
CC(C)(C)C(=O)N1CCN(c2nc3ccccc3s2)CC1 | -14.2
Cc1cccc(-c2nnc(SCc3cc(=O)[nH]c4ccccc34)n2C)c1 | -26.1
CCOP(=O)(OCC)C(O)c1cccc([N+](=O)[O-])c1 (stereo not shown) | 8.61
Cc1sc(N/N=C/c2cccs2)nc1-c1ccccc1 | 2.51
O=C(O)CCCn1c(=S)[nH]c2c(sc3ccc([N+](=O)[O-])cc32)c1=O | 23
COc1ccc(/C=C(\NC(=O)c2ccccc2)C(=O)N2CCN(C)CC2)cc1 | -76.3
COc1ccc(NC(=O)CSc2nnnn2C2CCCCC2)cc1 | -20.5
CN(C)CCNC(=O)CCn1nc(-c2ccc(Cl)cc2)ccc1=O | -15.4
CC(=O)Nc1ccc(S(=O)(=O)Nc2ccc(S(=O)(=O)Nc3nc(C)cc(C)n3)cc2)cc1 | 20.3
CCOc1ccc(-c2cc(NC(=O)c3c(F)cccc3F)c(C(=O)O)s2)cc1 | 21
CC(=O)OCC(=O)[C@@]1(OC(C)=O)[C@@H](C)C[C@H]2[C@@H]3C[C@H](F)C4=CC(=O)C=C[C@]4(C)[C@@]3(F)[C@@H](O)C[C@@]21C | -15.1
CCCC(CCC)C(=O)Nc1ccc2c(c1)N(C(=O)CCN1CCN(C)CC1)c1ccccc1CC2.Cl | 3.54
CCCCNC(=O)CC1S/C(=N/N=C/c2ccc(OC)cc2)NC1=O (stereo not shown) | 17.3
C#C[C@]1(O)CC[C@H]2[C@@H]3CCc4cc(OC5CCCC5)ccc4[C@H]3CC[C@@]21C | 16
COc1cc(C)c(Cl)cc1S(=O)(=O)N1CCCC1 | 7.87
O=C(NC1CCCC1)C1CCN(S(=O)(=O)N2CCCCC2)CC1 | 9.5

SMILES | hERG current change (%, negative = inhibition) at 10uM [%]
O=C(COC(=O)CCC(=O)c1cccs1)Nc1ccccc1[N+](=O)[O-] | 19.5
CN(Cc1ccco1)S(=O)(=O)c1nnc(NC(=O)c2ccc(F)cc2)s1 | 12.3
CC(C)[C@H](NC(=O)NC1CCCC1)C(=O)O | 12.2
CC(=O)NC(C)(C)C1CC=C(C)/C(=N\O)C1 (stereo not shown) | -11
CC(C)[C@H](NC(=O)C1CCN(S(=O)(=O)c2ccc(F)cc2)CC1)C(=O)N1CCCCCC1 | 5.18
CNS(=O)(=O)c1cc(O)c2c(S(=O)(=O)NC)cccc2c1 | 11
Cc1ccc(-c2noc(C3CCCN(C(=O)c4ccccc4Br)C3)n2)cc1 (stereo not shown) | 0.00198
CC(=O)N1CCCc2cc(S(=O)(=O)Nc3ccc(C)cc3C)ccc21 | -13.3
Cc1ccc(NC(=O)C2(N(CC(C)C)C(=O)Cn3nnnc3N)CCCCC2)cc1 | 3.52
CCCCS(=O)(=O)N1CCC(C(=O)Oc2ccc(Cl)cc2)CC1 | 20.9
COc1ccc(N/N=C(\C#N)C(=O)NCCc2ccc(OC)c(OC)c2)cc1 | 9.85
O=C(O)CC(Cc1ccc(Br)cc1)C(=O)O (stereo not shown) | 10.1
O=C(CNC(=O)c1ccco1)N/N=C/c1c[nH]c2ccccc12 | 10.9
CC(N)Cc1c[nH]c2c1ccc1ccccc12.Cl (stereo not shown) | 12.3
Br.CCOc1ccc(C2=Nn3c(CC)nnc3SC2)cc1 | -6.9
O=C(NCCCn1ccnc1)/C(=C/c1ccccc1)NC(=O)c1ccccc1 | -70.3
CC(C)OCCCNc1ncnc2c1cnn2-c1ccccc1 | 2.87
NC(=O)CC(NC(=O)c1ccccc1)c1ccc(NC2CCN(Cc3ccccc3)CC2)c([N+](=O)[O-])c1 (stereo not shown) | 1.08
COCCN1Cc2cc3cc(C)ccc3nc2SC1=Nc1cccc(OC)c1 | 21.3
O=C(CCC(=O)OCC(=O)c1cccc([N+](=O)[O-])c1)Nc1cccc(Cl)c1Cl | 3.97
O=C(/C=C/c1ccccc1)N(Cc1cccc(Cl)c1)C1CCS(=O)(=O)C1 (stereo not shown) | -25.6
Cc1ccc(NC(=O)CN2CCN(S(=O)(=O)c3cccs3)CC2)cc1S(=O)(=O)N(C)C | -37.7
COc1ccc(CN2CCNC(=O)C2CC(=O)N2CCc3ccccc3C2)c(OC)c1 (stereo not shown) | 2.51
CCOc1ccc2c(c1)sc(=NC(=O)C1CC1)n2C | -5.78
O=C(NNS(=O)(=O)c1ccc(Cl)cc1)c1cccs1 | 10.5
COc1ccc(S(=O)(=O)N2CCN(c3nc(C)cc(C)n3)CC2)cc1 | 2.96
O=C(C1CCCN(S(=O)(=O)c2ccccc2)C1)N1CCCCCC1 (stereo not shown) | -2.74
